# Source: the supplement of paper PMC12217912
# Some of the results follow. Sequences were assembled here from the parent chain. Values near 0.05 are background.
# B1: TEV protease; numbered along this chain (parent)
# chain: MGESLFKGPRDYNPISSSICHLTNESDGHTTSLYGIGFGPFIITNKHLFRRNNGTLVVQSLHGVFKVKDTTTLQQHLVDGRDMIIIRMPKDFPPFPQKLKFREPQREERICLVTTNFQTKSMSSMVSDTSCTFPSGDGIFWKHWIQTKDGQCGSPLVSTRDGFIVGIHSASNFTNTNNYFTSVPKNFMELLTNQEAQQWVSGWRLNADSVLWGGHKVFMVKPEEPFQPVKEATQL
# Variants of: B1
# Assay: raw area under fraction-flipped curve 0-4 h after induction (AUC4h, not background-subtracted), DNA-recorder readout of cleavage of the substrate (dimensionless); higher = more cleavage of the substrate by the protease variant
# Conditions: temperature: 34 °C; time window: 0-4 h after rhamnose induction
# Description: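 In vivo DNA recorder in E. coli TOP10(DE3) ΔrhaA at 34 °C. Each TEVp single-site mutant (parent TEVp 0) is paired with a single-site variant of the 7-mer TEVs (canonical ENLYFQ|S). The substrate sits between flexible linkers in a Bxb1-sfGFP-TEVs-SsrA fusion, so cleavage stabilises Bxb1 and speeds flipping of a recombination array, read by NGS. The value is the raw area under the fraction-flipped curve over 0-4 h after rhamnose induction (AUC4h), with ≥20 reads per time point. It is not background-subtracted; inactive controls average about 0.047.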
# 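Also: Bxb1 expression induced with 0.2% (w/v) L-rhamnose at OD600 near 0.5, cultures sampled hourly, flipped fraction per protease–substrate barcode pair counted by paired-end Illumina sequencing.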
Variant,area with substrate ENAYFQS,area with substrate ENEYFQS,area with substrate ENHYFQS,area with substrate ENMYFQS,area with substrate ENNYFQS,area with substrate ENRYFQS,area with substrate ENSYFQS,area with substrate ENTYFQS,area with substrate ENVYFQS,area with substrate ENYYFQS
L156Y,0.0559,0.0463,0.0629,0.0533,0.0513,0.079,0.056,0.0618,0.053,0.0518
F180S,0.0561,,,,0.06,,,,0.0553,
R204D,0.0503,,0.0653,0.0773,0.0663,0.0886,0.0719,0.0594,0.105,
R204P,0.0707,0.0552,0.0682,,,,0.0623,0.0681,,
K185A,0.074,,,,,0.0316,0.0551,0.0633,0.0621,
K185N,0.0878,,,,,0.0466,0.0715,,0.0939,
K185V,0.0542,0.0553,,0.0837,0.0515,,0.0668,0.0491,,0.0614
S154A,0.0584,0.0658,0.0633,0.0634,0.0588,0.0667,0.0559,0.0648,,0.0507
S154V,0.0626,0.0692,,0.0836,,0.0654,0.0628,,0.0482,
S154I,0.0472,,,,,,0.0998,,0.0954,
S154D,0.0503,,,,0.05,0.0541,0.0934,,,0.0478
N175A,0.0571,,0.0587,0.0917,0.0436,0.0608,0.0732,0.0481,0.0619,
N175Q,0.0623,,,,,0.0733,0.0532,0.046,,
N186F,0.0835,,0.0513,,,,,,0.0527,
F187G,0.0697,0.0548,0.0785,,0.0543,0.0642,,0.0559,0.0263,0.0427
F187A,0.0589,0.0576,,0.0571,0.0507,0.0515,0.0642,0.067,,0.0511
F163S,0.0433,,,0.0517,,,,,,
F163M,0.0544,0.0591,,,,,0.0772,0.0535,,

Variant,area with substrate ENAYFQS,area with substrate ENEYFQS,area with substrate ENHYFQS,area with substrate ENMYFQS,area with substrate ENNYFQS,area with substrate ENRYFQS,area with substrate ENSYFQS,area with substrate ENTYFQS,area with substrate ENVYFQS,area with substrate ENYYFQS
F163D,0.0723,0.0566,,,,,,,,
N178R,0.0749,0.0393,0.0519,,,0.0507,0.0694,,0.0698,0.0892
N178M,0.104,0.0515,0.0443,,0.0533,,,0.0341,,
T159K,0.06,,0.0625,,0.0801,0.0717,0.0672,,,
S209G,0.0521,,,,,,0.0761,,0.0325,0.0585
S201H,0.0829,0.057,,,,0.058,0.0604,,,
S201E,0.0706,0.0528,,0.0725,,,,,0.0568,
S201C,0.0518,0.0511,0.0671,0.0699,0.0798,,,,,0.0734
S201Q,0.0674,,,,0.0686,,,,0.0885,
D161G,0.0598,,0.0548,,,,0.0531,0.0675,0.0653,0.0495
G202I,0.0583,,,,,0.0507,0.069,0.0618,,
Q197R,0.0704,0.0912,,,,,0.0826,,,
L190D,0.0434,,0.0791,0.0727,0.098,,,,0.0798,
L190T,0.0735,0.0462,,0.0902,0.0765,0.0568,0.0661,0.0784,,0.0086
L190N,0.0664,0.0543,,,,0.0624,,,,
N177M,0.0642,0.0619,,,0.0677,,0.0543,0.0806,,
N177T,0.0763,0.063,,0.0887,0.0559,0.0574,0.0705,0.0629,0.102,0.0501
N177G,0.0405,0.0512,,,,,0.0632,,0.0561,

# Same assay, conditions: temperature: 34 °C; time window: 0-4 h after rhamnose induction
Variant,area with substrate ENFYFQS,area with substrate ENDYFQS,area with substrate ENGYFQS,area with substrate ENQYFQS,area with substrate ENCYFQS,area with substrate ENWYFQS,area with substrate ENIYFQS,area with substrate ENPYFQS,area with substrate ENKYFQS
F180S,0.0475,,,,,,,,
R204D,0.0453,0.0729,0.0523,0.0648,,,,,
R204P,,0.0734,,,0.06,,,,
K185A,0.0474,0.0587,,0.0708,,,,,
K185N,0.0728,0.0608,0.0889,0.0519,,0.0479,,,
K185V,,,0.0696,,0.08,,0.0985,,
S154A,0.0539,0.0631,,0.056,0.0674,,0.0972,0.0695,
S154V,,,0.0555,0.0434,,,,0.0438,
S154I,,0.066,0.0571,,,,0.104,,
S154D,0.0494,,0.0523,0.0587,0.0564,,,,
N175A,0.0564,,0.0602,0.0721,0.0662,,0.0683,,0.0655
N175Q,,0.0792,,0.0395,0.0596,,0.114,0.0614,
N186F,0.053,,,,0.0834,,,0.0753,0.0581
F187G,0.062,0.0414,0.0465,0.0544,,,,0.0512,0.0441
F187A,,0.0568,0.0519,0.0519,0.0564,,0.0847,0.0586,
F163S,0.0644,0.0496,,0.0567,,,,,
F163M,0.0716,,,,,0.0401,0.101,0.0607,

Variant,area with substrate ENFYFQS,area with substrate ENDYFQS,area with substrate ENGYFQS,area with substrate ENQYFQS,area with substrate ENCYFQS,area with substrate ENWYFQS,area with substrate ENIYFQS,area with substrate ENPYFQS,area with substrate ENKYFQS
F163D,,,,0.0317,,,,,
N178R,,,,0.0327,,,,,
N178M,0.0873,,,0.0686,0.111,,,0.0499,
T159K,,,,0.0549,0.0969,0.0052,0.11,,0.0715
S209G,0.0797,,,,0.054,,,,0.0549
S201H,0.0759,0.031,,,0.0596,0.0655,,,0.0614
S201E,0.0152,0.067,,0.0538,0.019,,,0.0577,
S201C,0.0414,,0.0542,0.0657,0.062,,0.148,,
S201Q,,,0.0521,,,,0.0765,,
D161G,0.0491,0.0606,0.0722,0.0608,0.0669,,0.0894,,0.057
G202I,0.056,0.056,,0.028,,,0.0668,,0.0802
Q197R,0.049,0.0502,,0.0568,,0.049,,,0.0545
L190D,0.0478,,,,0.066,0.0657,,,0.0577
L190T,0.0696,0.0678,,0.0889,0.0764,,,0.0547,0.0613
N177M,,,,0.0493,0.0598,,,0.0482,0.0646
N177T,,0.0538,,0.0589,,,,,
N177G,0.0535,,,0.0446,0.101,,0.0738,,0.0667
